Data as given in publication PMC4599898.
These are yes or no findings as the source states them, for the method shown. Binding seen in cells or lysates may run through a third protein.

What was measured:
Assay in all cases: split reporter; split YFP BiFC in transiently transformed Arabidopsis protoplasts, 2 ug of each plasmid, incubated overnight; read by flow cytometry (at least three biological replicates, minimum 30,000 cells); each pair tested in both fusion conformations (SPN and SPC); positive where the normalized BiFC score lies above the threshold 0.01 in both conformations
[1] = molecular target: T1, Hy5 (Arabidopsis thaliana) (UniProt O24646)
T1 sequence: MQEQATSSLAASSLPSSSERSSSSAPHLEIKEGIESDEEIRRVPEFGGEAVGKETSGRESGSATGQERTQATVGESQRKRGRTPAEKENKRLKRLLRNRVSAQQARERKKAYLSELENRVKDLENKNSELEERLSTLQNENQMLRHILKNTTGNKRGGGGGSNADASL

[2] = molecular target: T2, GBF3 (Arabidopsis thaliana) (UniProt P42776)
T2 sequence: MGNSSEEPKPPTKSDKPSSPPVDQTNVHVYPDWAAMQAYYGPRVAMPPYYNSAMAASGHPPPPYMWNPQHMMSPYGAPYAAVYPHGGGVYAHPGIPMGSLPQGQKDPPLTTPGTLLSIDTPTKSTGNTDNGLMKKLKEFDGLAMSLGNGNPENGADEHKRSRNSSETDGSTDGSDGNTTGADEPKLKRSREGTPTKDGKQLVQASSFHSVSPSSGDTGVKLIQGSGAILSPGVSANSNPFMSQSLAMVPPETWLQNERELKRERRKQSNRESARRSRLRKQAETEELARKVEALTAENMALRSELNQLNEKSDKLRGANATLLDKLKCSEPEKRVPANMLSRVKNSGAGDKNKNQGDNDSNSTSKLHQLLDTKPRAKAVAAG

[3] = molecular target: T3, GBF2 (Arabidopsis thaliana) (UniProt P42775)
T3 sequence: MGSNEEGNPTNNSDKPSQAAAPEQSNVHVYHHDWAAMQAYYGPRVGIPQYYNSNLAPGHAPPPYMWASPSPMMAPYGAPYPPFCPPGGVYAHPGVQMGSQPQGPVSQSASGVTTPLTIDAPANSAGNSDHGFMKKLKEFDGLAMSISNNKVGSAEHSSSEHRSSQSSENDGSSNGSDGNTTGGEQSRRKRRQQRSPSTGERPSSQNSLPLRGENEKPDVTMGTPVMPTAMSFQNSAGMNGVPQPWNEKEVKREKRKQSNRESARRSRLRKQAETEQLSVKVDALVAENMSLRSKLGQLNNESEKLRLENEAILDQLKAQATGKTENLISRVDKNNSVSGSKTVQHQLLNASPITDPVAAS

[4] = molecular target: T4, bZIP10 (Arabidopsis thaliana) (UniProt O22763)
T4 sequence: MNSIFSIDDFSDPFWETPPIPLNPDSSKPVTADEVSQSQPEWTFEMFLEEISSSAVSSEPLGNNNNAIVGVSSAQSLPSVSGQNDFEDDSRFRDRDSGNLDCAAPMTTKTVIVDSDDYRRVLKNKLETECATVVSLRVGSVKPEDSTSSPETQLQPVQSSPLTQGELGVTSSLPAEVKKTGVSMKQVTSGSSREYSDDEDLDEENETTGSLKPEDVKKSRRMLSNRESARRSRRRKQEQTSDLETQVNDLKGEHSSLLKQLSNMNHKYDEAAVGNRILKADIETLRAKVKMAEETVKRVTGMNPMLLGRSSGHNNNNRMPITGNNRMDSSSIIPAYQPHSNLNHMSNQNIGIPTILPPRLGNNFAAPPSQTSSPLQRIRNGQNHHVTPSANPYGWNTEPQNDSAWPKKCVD

Measured: binding

B1: bZIP9 (protein, UniProt Q9FUD3 1-277)
chain: MDNHTAKDIGMKRSASELALQEYLTTSPLDPCFDLMNRDYTCELRDSLLWSEGLFPAGPFRDAQSSICENLSADSPVSANKPEVRGGVRRTTSGSSHVNSDDEDAETEAGQSEMTNDPNDLKRIRRMNSNRESAKRSRRRKQEYLVDLETQVDSLKGDNSTLYKQLIDATQQFRSAGTNNRVLKSDVETLRVKVKLAEDLVARGSLTSSLNQLLQTHLSPPSHSISSLHYTGNTSPAITVHSDQSLFPGMTLSGQNSSPGLGNVSSEAVSCVSDIWP
no binding: all assays above
